The shares of active, inactive and inconclusive entries below differ from those in the screen. The source made the active and inactive calls. The call rests on the fitted dose curve; in most records, active means well fitted curve in either direction with a large enough effect (not every such curve was filed as active); inconclusive means small, poorly fitted or top-dose-only effect, or another doubt; inactive means flat fitted curve, though single readings scatter.
What was measured:
[1] = NFAT Signaling Pathway (AID 444); details: Jurkat NFAT-bla M1, carbachol, beta-lactamase ratio, 5 h; at 17.2 µM (top of the series) unless noted;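 further: carbachol stimulus at about its EC50 of 1 µM final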
Method in brief: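 Jurkat cells carrying an NFAT-driven β-lactamase reporter and co-transfected muscarinic M1 receptor were treated with compound plus carbachol (1 uM final, an EC50 level) for 5 h at 37 °C. CCF4 loading followed for 1 h at RT; 460/530 nm ratio gave %activity.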

[2] = Stat Signaling Pathway (AID 446); details: ME-180 (cervical carcinoma) SIE beta-lactamase reporter, IL-6 stimulated, 5 h; at 7.69 µM (top of the series) unless noted;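 further: ME-180 cervical cancer cells given 40 pM IL-6 alongside compound; SIE-controlled beta-lactamase reporter measured as 460/530 nm FRET emission ratio; top concentration of the series differs between compounds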
Method in brief: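 FRET read-out (405 nm excitation, 460/530 nm emission) of a beta-lactamase reporter under a STAT-inducible element in ME-180 cervical carcinoma cells. Cells with compound receive 40 pM IL-6 for 5 h. Values are normalised to AC90 stimulation and AC90 JAK-inhibitor controls.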
On the % scale 0 is the no-effect control and ±100 the full control effect.

Row | SMILES | activity change, negative = inhibition [1] | activity, negative = inhibition [2]
1 | O=C(c1cnccn1)N1CCC2(CC1)CCN(c1ccncc1)CC2 | inconclusive: -54.1% [inhibitor] [at 7.69 µM] | –
2 | CN(CC(O)COc1ccc(OCC(O)CN(C)C2CCCCC2)cc1)C1CCCCC1 (stereo unspecified) | inconclusive: -56.8% [inhibitor] | –
3 | COc1ccc(C(=O)Nc2cccnc2)cc1C(=O)Nc1cccnc1 | inconclusive: -31.6% [inhibitor] | –
4 | O=C(O)/C=C\C(=O)N1Cc2cc3ccccc3nc2C1 | inconclusive: -31.4% [inhibitor] [at 7.69 µM] | –
5 | COc1ccc(OC)c(C(O)c2coc3ccc(O)c(CN4CCOCC4)c23)c1 (stereo unspecified) | inactive: -10.4% | –
6 | Clc1ccc(-c2nnc3sc(Cc4cccs4)nn23)c(Cl)c1 | inconclusive: -33.1% [inhibitor] | –
7 | O=C(Nc1cccc(F)c1)N1CC2(CCN(C(=O)c3cnccn3)CC2)C1 | inactive: 20.8% [at 7.69 µM] | –
8 | Cc1cc(C)c2c(N)c(C(=O)c3ccccc3)oc2n1 | inactive: 3.96% | –
9 | CS(=O)(=O)N1CCC[C@@]2(CCN(c3ccccc3)C2)C1 | inactive: -3.01% [at 7.69 µM] | –
10 | CCC(CC)c1nc2cc(OC)c(OC)cc2c(=O)o1 | inconclusive: 14.3% [activator] | –
11 | Cc1c(NC(=O)C(CC(=O)O)NCc2ccco2)c(=O)n(-c2ccccc2)n1C (stereo unspecified) | inactive: 5.18% | –
12 | COc1cc(C2CC(C(F)(F)F)n3ncc(C(=O)O)c3N2)cc(OC)c1OC (stereo unspecified) | inactive: -3.76% | –
13 | Nc1ccc2c(c1)N1CCN=C1S2 | inconclusive: -53.1% [inhibitor] | –
14 | COc1cccc(C2=CC(c3ccc(N(C)C)cc3)n3nnnc3N2)c1 (stereo unspecified) | inconclusive: -1.26% [inhibitor] | –
15 | COc1cccc(C(=O)OC2CCCN(C)C2)c1 (stereo unspecified) | inconclusive: -35.5% [inhibitor] | –
16 | Cc1nc2cnc(N3CCOCC3)nc2n(C2CC2)c1=O | inactive: -11.7% [at 7.69 µM] | –
17 | Cc1cccn2c(=O)c3cc(C(N)=S)c(=N)n(CCCOC(C)C)c3nc12 | inconclusive: -47.1% [inhibitor] | –
18 | c1ccc(OCc2nn3c(-c4ccco4)nnc3s2)cc1 | inactive: 1.21% | –
19 | COc1ccc(OC)c(C2/C(=C(/O)c3ccc(C)cc3)C(=O)C(=O)N2Cc2ccco2)c1 (stereo unspecified) | inactive: -17.7% | –
20 | CCOC(=O)COn1c(=O)c(-c2ccco2)[n+]([O-])c2ccccc21 | inconclusive: 9.67% [inhibitor] | –
21 | Cc1cc(C)nc(NC(=O)c2ccc(OC(C)C)cc2)n1 | inactive: -4.53% | –
22 | N[C@@H](CSC1(c2ccc(Cl)cc2)c2ccccc2-c2ccccc21)C(=O)O | inactive: 10.1% [at 7.69 µM] | –
23 | CCN(CC)CCCN1C(=O)C(=O)/C(=C(/O)c2ccc(Cl)cc2)C1c1ccccn1 (stereo unspecified) | inactive: 5.22% | –
24 | CN(CCCCCNC(=O)/C=N/O)Cc1ccccc1 | inconclusive: -35.1% [inhibitor] | –
25 | Cc1ccc(S(=O)(=O)O[C@@H]2[C@H]([C@@H]3COC(C)(C)O3)O[C@H]3OC(C)(C)O[C@@H]32)cc1 | inactive: 3.01% [at 7.69 µM] | –
26 | CCCSc1nnc2n(-c3ccccc3OC)c(=O)c3c4c(sc3n12)CCC4 | inconclusive: -43.4% [inhibitor] | –
27 | N#Cc1cccc(NC(=O)N2CC[C@@]3(CCCNC3)C2)c1 | inactive: 9.18% [at 7.69 µM] | –
28 | Cc1cc(N2C(=O)C(=O)/C(=C(/O)c3ccccc3)C2c2cccc(Br)c2)no1 (stereo unspecified) | inconclusive: 51.2% [activator] | –

Row | SMILES | activity change, negative = inhibition [1] | activity, negative = inhibition [2]
29 | O=C(c1ccncc1)N1CCC2(CCCN(Cc3ccccc3)C2)CC1 | inconclusive: -67% [inhibitor] [at 7.69 µM] | –
30 | CCN(CC)c1ccc(C2Nc3cccc4cccc(c34)N2)c(O)c1 | inconclusive: -96.6% [inhibitor] | –
31 | CC1(C)Cc2c(sc3nc4n(c(=N)c23)CCCCC4)CO1 | inconclusive: -72.8% [inhibitor] | –
32 | CN1CCN(CCC(=O)N2c3ccccc3Sc3ccc(Cl)cc32)CC1 | inconclusive: -78.2% [inhibitor] | –
33 | CS(=O)(=O)N1CCC2(CCN(c3ccncc3)CC2)CC1 | inconclusive: -50.4% [inhibitor] [at 7.69 µM] | –
34 | C=CCOc1nc2c(c(=O)n(C)c(=O)n2C)n1Cc1ccc(Cl)cc1 | inactive: -8.76% | –
35 | COc1ccc(Cn2c(O)cc(=O)[nH]c2=O)cc1 | inactive: -0.64% | –
36 | N#Cc1cccc(NC(=O)N2CCC3(CC2)CCN(C(=O)c2cccc(F)c2)CC3)c1 | inconclusive: 5.3% [activator] [at 7.69 µM] | –
37 | Fc1cccc(Cl)c1/C=N\N=C1c2ccccc2-c2ccccc21 | inconclusive: -54% [inhibitor] [at 7.69 µM] | –
38 | COc1ccc(C2=CC(c3cccc(OC)c3)n3nnnc3N2)cc1 (stereo unspecified) | inactive: 1.4% | –
39 | COc1ccc(CSC2=NCCN2)cc1Cl | inconclusive: -61.6% [inhibitor] | –
40 | CC(=O)Nc1ccc2c(c1)C(=Nc1ccc(C(=O)O)cc1)c1ccccc1-2 | inactive: 27.4% [at 7.69 µM] | –
41 | CSc1ccc(NC(=O)Nc2cc(C)ccn2)cc1 | inactive: -18.9% [at 7.69 µM] | –
42 | O=C(O)[C@@H](Cc1c[nH]c2ccccc12)C(=O)NO | inactive: 4.43% [at 7.69 µM] | –
43 | CCCC1c2c(ccc3ccccc23)Oc2ccc3ccccc3c21 | inconclusive: -55% [inhibitor] [at 7.69 µM] | –
44 | CCC12CN3CC(CC)(CN(C1)C3c1c(O)ccc3ccccc13)C2=O (stereo unspecified) | inconclusive: -53.1% [inhibitor] | –
45 | CCC1CCCCN1c1nc(-c2ccncc2)nc2ccccc12 (stereo unspecified) | inconclusive: -61% [inhibitor] | –
46 | C[C@H]1CC[C@@H]2[C@@H](C)[C@H]3[C@H](C[C@H]4[C@@H]5CC=C6C[C@@H](O[C@]7(O[C@H]8O[C@@H](C)[C@@H](O)[C@@H](O)[C@@H]8O)C[C@@H](O[C@@H]8O[C@H](CO)[C@@H](O)[C@H](O)[C@@H]8O)[C@@H](O)[C@H](CO)O7)CC[C@]6(C)[C@H]5CC[C@@]34C)N2C1 | inconclusive: -47.6% [inhibitor] | –
47 | C=C1CCO[C@@]2([C@H](O)[C@@](C)(O)CO)NC(=O)[C@]1(O)NC2=O | inactive: -4.59% [at 7.69 µM] | –
48 | CCOc1ccc(N=NS(=O)(=O)O)cc1 | inactive: -0.735% [at 7.69 µM] | –
49 | CN(Cc1c(O)ccc2c1oc(=O)c1ccccc12)C1CCCCC1 | inconclusive: -31.7% [inhibitor] | –
50 | CCCCCOc1ccc(C(=O)NCC(=O)NCC(=O)OCC)cc1 | inactive: -2.75% | –
51 | O=C(NCc1cccnc1)/C(=N\O)c1ccccc1 | inconclusive: 15.7% [inhibitor] | –
52 | CC(C)c1nc(NCC2CCCO2)c(C#N)c2c1COC(C)(C)C2 (stereo unspecified) | inconclusive: -52% [inhibitor] | –
53 | COc1cc2[nH]c3c(=O)n(CCN(C(C)C)C(C)C)cnc3c2cc1OC | inconclusive: -36.8% [inhibitor] | –
54 | Cn1nnc2c(sc3nc(N4CCOCC4)c4c(c32)CCCC4)c1=O | inconclusive: -44.1% [inhibitor] | –
55 | CC(C)C[C@H]1C(=O)N2CCC[C@H]2[C@]2(O)O[C@](NC(=O)[C@@H]3C=C4c5cccc6[nH]c(Br)c(c56)CC4N(C)C3)(C(C)C)C(=O)N12 (stereo partly specified) | inconclusive: -62.5% [inhibitor] | inconclusive: -55.1% [inhibitor] [at 17.2 µM]

Source: PubChem BioAssay (NCATS)
